Drawing on the RNAGym collection of RNA variant scans (doi:10.7554/elife.90254), this text covers self-cleavage for 21 variants.

The source gives no read counts; variants with many changes may rest on few reads.

To fix the notation:
B1: OR4K15 (parent)
chain: GUUAACGGUCAUAGGCCAUGGAAACUAGGAGCACCAUUUCGCUGCCAGUGAAGAAAUGAACAAAGAAAAUCUGGGCCAGGCAGGCAUCAAAAGAAAUAGUCUUGCGCUCAACCAGAAAGUCUGUAAUCAUUUUAAGGGUA

The data set covers variants of B1. The data set is described as follows: self-cleavage, relative activity (ratio to wild type); higher = more cleavage; in vitro, sequencing; the parent is a self-cleaving ribozyme.
For the variant GUUAACGGUCAUAGGCCAUGGAAACUAGGAGCACCAUUUCGCUGCCAGUGAAGAAGUGAACAAAGAAAAUCUGGGCCAGGCAGGCAUCAAAAGAAACAGUCUUGCGCUCUACCAGAAAGUCUGUAAUCAUCUUAAGGGUA, the self-cleavage came to 0.53.

On to GUUAACGGUCAUAGGCCAUGGAAACUAGGAGCACCAUUUCGCUGCCAGUGAAGAAGUGAACAAAGAAAACCUGGGCCAGGCAGGCAUCAAAAGAAAUAGUCUUGCGCUCCACCAGAAAGUCUGUAAUCAUUUUAAGGGUA, for which the self-cleavage was 0.15.

For the variant GUUAACGGUCAUAGGCCAUGGAAACUAGGAGCACCAUUUCGCUGCCAGUGAAGAAGUGAACAAAGAAAAUCUGGGCCAGGCAGGCAUCAAACGGAAUAGUCUUGCGCUCAACCAGUAGGUCUGUAAUCAUUUUAAGGGUA, the self-cleavage stood at 0.19.

For the variant GUUAACGGUCAUAGGCCAUGGAAACUAGGAGCACCAUUUCGCUGCCAGUGAAGAAGUGAACAAAGAAAAUCUGGGCCAGGCAGGCAUCAAAAGAGAUAGACUUGCGCUCAACCAGAAAGUCUGUAAUCAUUUUAAGGGUA, the self-cleavage was found to be 1.36.

Take GUUAACGGUCAUAGGCCAUGGAAACUAGGAGCACCAUUUCGCUGCCAGUGAAGAAGUGAACAAAGAAAAUCUGGGCCAGGCAGGCGGCAAAAGAAAUAGUCUUGCGCUCAACCAGAAAGUCUGUAAUCAUUUUAAGGGUA: the self-cleavage was 1.34.

With GUUAACGGUCAUAGGCCAUGGAAACUAGGAGCACCAUUUCGCUGCCAGUGAAGAAGUGAACAAAGAAAAUCUGGGCCAGGCAGGCAUCAAAAGAAAUAGUCUUGCGCUCAACCAGAAUGUCUGCAAUCAUUUUAAGGGUA, the self-cleavage was found to be 0.34.

With GUUAACGGUCAUAGGCCAUGGAAACUAGGAGCACCAUUUCGCUGCCAGUGAAGAAGUGAACAAAGAAAAUCUGGGCCAGGCAGGCACCAAAAGAAAUAGUCUUGCGCCCAACCAGAAAGUCUGUAAUCAUUUUAAGGGUA, the self-cleavage was determined as 0.02.

On to GUUAACGGUCAUAGGCCAUGGAAACUAGGAGCACCAUUUCGCUGCCAGUGAAGAAGUGAACAAAGAAAAUCUGGGCCAGGCAGGCAUCAAGAGAAAUAGUCUUGCGCUCAACCAGAGAGUCUGUAAUCACUUUAAGGGUA, for which the self-cleavage stood at 0.78.

As for GUUAACGGUCAUAGGCCAUGGAAACUAGGAGCACCAUUUCGCUGCCAGUGAAGAAGAGAACAAAGAAAAUCUGGGCCAGGCUGGCGUCAAAAGAAAUAGUCUUGCGCUCAACCAGAAAGUCUGUAAUCAUUUAAAGGGUA, the self-cleavage amounted to 0.26.

For GUUAACGGUCAUAGGCCAUGGAAACUAGGAGCACCAUUUCGCUGCCAGUGAAGAAGUGAACAAAGAAAAUCUGGGCCAGGCAGGCAUCAAAAGAAAUAGUCUUGCGAUCAACCAGAAAGUCUGUAAUCAUUUUAGGGGUA, the self-cleavage came out at 0.01.

Consider GUUAACGGUCAUAGGCCAUGGAAACUAGGAGCACCAUUUCGCUGCCAGUGAAGAAGUGAACAAAGAAAAUCUGGGCCAGGCAGGCAUCAAAAGGAUUAGUCUUGCGCUCAACCAGAAAGUCUGUAAUCAUUUUUAGGGUU, for which the self-cleavage was found to be 1.47.

With GUUAACGGUCAUAGGCCAUGGAAACUAGGAGCACCAUUUCGCUGCCAGUGAAGAAGAGAACAAAUAAAAUCUGGGCCAGGCAGGCAUCUAAAGAAAUAGUCUUGCGCUCAACCAGAAAGUCUGUAAUCAUUUUAAGGGUA, the self-cleavage is 1.07.

In the case of GUUAACGGUCAUAGGCCAUGGAAACUAGGAGCACCAUUUCGCUGCCAGUGAAGAAGUGAACAAAGAAAAGCUGGGCCUGGCAGGCAUCAAAAGAAAUAGUCUUGCGCUCAACCAGAAAGUCUGUAAUCAUUUUAAGGGUA, the self-cleavage is 0.1.

GUUAACGGUCAUAGGCCAUGGAAACUAGGAGCACCAUUUCGCUGCCAGUGAAGAAGUGAACAAAGAAAAUCUGGGCCAGGCAGGCAUCAAAAGAAAUAGUCAUGCGCCCAACCAGAAAGUCUGUAAUCAUUUUAAGGGUA: the self-cleavage was determined as 0.01.

With GUUAACGGUCAUAGGCCAUGGAAACUAGGAGCACCAUUUCGCUGCCAGUGAAGAAGUGAACAAAGAAAAUCUGGGCCAGGCAGGCAUCAAAGGAAAUAGUCUUGCGCUCAACCAGAAAGUCCGUAAUCAUUUUAAGGGUA, the self-cleavage came to 1.06.

Take GUUAACGGUCAUAGGCCAUGGAAACUAGGAGCACCAUUUCGCUGCCAGUGAAGAAGUGAACAAAGAAAAUCUGGGCCAGGCAGGCAUCAAAGGAAAUAGUCUUGCGCUCAACCAGAAAAUCUGUAAUCGUUUUAAGGGUA: the self-cleavage amounted to 2.49.

In the case of GUUAACGGUCAUAGGCCAUGGAAACUAGGAGCACCAUUUCGCUGCCAGUGAAGAAGUGAACAAAGAAAAUCUGGGCCAGGCAGGCACCAUAAGAAAUAGUCUUGCGCUCAACCAGAAAGCCUGUAAUCAUUUUAAGGGUG, the self-cleavage came to 0.2.

For the variant GUUAACGGUCAUAGGCCAUGGAAACUAGGAGCACCAUUUCGCUGCCAGUGAAGAAGUGAACAAAGAAAACCUGGGCCAGGCAGGCAUCAAAAGAAAUAGUCUUGCGCCCGACCAGAGAGUCUGUAAUCAUUUAAAGGGUA, the self-cleavage worked out at 0.

On to GUUAACGGUCAUAGGCCAUGGAAACUAGGAGCACCAUUUCGCUGCCAGUGAAGAAGUGAACAAAGAAAACCUGGGCCAGGCAGGCAUCAAGAGAAAUAGUCUUGCGCUCAACCAGAAAGUCUGUAAUCAUUUUAAGGGUA, for which the self-cleavage is 0.51.

As for GUUAACGGUCAUAGGCCAUGGAAACUAGGAGCACCAUUUCGCUGCCAGUGAAGAAGUGAACAAAGAAAAUCUGGGCCAGGCAGGCAUCAAAAGAAAUAGUCUUGCACUCAACCAGAAAGUCUGUAAUCAUUUUAAGGGUG, the self-cleavage amounted to 0.01.

Consider GUUAACGGUCAUAGGCCAUGGAAACUAGGAGCACCAUUUCGCUGCCAGUGAAGAAGUGAACAAAGAAAAUCUGGGCCAGGCAGGCAUCAAAGGAAAUAGUCUUGCGCCCAACCAGAAAGUCUGUAAUCAUUUUAAGGGUA, for which the self-cleavage came out at 0.
